Source: PubChem BioAssay AID463173 (ICCB-Longwood Screening Facility, Harvard Medical School, 2010)
In all, about 52,000 compounds went through this assay and about 1,700 (3.3%) were called active. No stated cut-off is given here; in the data, active means survival mostly below about 52% (no sharp cut-off); inactive means mostly above about 56%. This is one part of the list.

These compounds were tested on Wild type (assay: growth inhibition of S. aureus wild type versus tarO mutant, primary screen, teichoic acid synthesis inhibitors, RN4220, OD600 (AID 463173)). Conditions: S. aureus RN4220 wild type/DeltatarO growth, OD600, 18 h, active compounds read low, screened at 18.75 µg/mL (by protocol).

Compound	survival
COC(=O)c1ccc2c(=O)n(CCCCCC(=O)NCc3ccccc3)c(=O)[nH]c2c1	inactive: 83%
Cc1cccc(-n2c3c(cc(-c4nc(-c5ccc(Cl)cc5)cs4)c2=O)C(=O)CC(C)(C)C3)c1	inactive: 69%
COc1ccccc1CNC(=O)C1CCCN(c2nn3cc(-c4ccc(F)cc4)nc3s2)C1 (stereo not given)	inactive: 77%
CCOC(=O)c1cnc2cc(C(F)(F)F)ccc2c1N1CCN(c2ccc(F)cc2)CC1	inactive: 58%
CCOc1ccc2nc(Nc3nc4c(c(=O)[nH]3)CCCC4)nc(C)c2c1	inactive: 114%
CCOc1ccc(CCNC(=O)CS(=O)Cc2nc(-c3ccc(C)cc3)oc2C)cc1OCC (stereo not given)	inactive: 80%
Cc1ccc(Cn2ccn(CC(=O)Nc3ccccc3C(F)(F)F)c(=O)c2=O)cc1	inactive: 114%
CC(=O)c1ccc(NC(=O)c2ccc3c(c2)N(Cc2cccc(Cl)c2)C(=O)c2ccccc2S3(=O)=O)cc1	inactive: 96%
CCOC(=O)c1c(C)[nH]c(C)c1S(=O)(=O)N1CCC(C(=O)Nc2ccc(F)cc2F)CC1	inactive: 82%
CCOc1ccccc1NC(=O)Cn1c(=O)n(CCCC(=O)NCCOC)c(=O)c2cc(OC)c(OC)cc21	inactive: 67%
COC(=O)c1ccccc1NC(=O)CSc1nc(-c2ccccc2)cc(C(F)(F)F)n1	active: 19%
Cc1cc(Cl)ccc1NC(=O)CN1C(=O)CSc2ccc(S(=O)(=O)N(C)C)cc21	inactive: 68%
CCn1c(NN)nc2sc3c(c2c1=O)CC(C)(C)OC3	inactive: 107%
CCOCCc1nn2c(=O)cc(COC(=O)COc3ccccc3Cl)nc2s1	inactive: 78%
COc1ccc(CNC(=O)Cn2ccc3cc(S(=O)(=O)N4CCCCC4)ccc32)c(OC)c1	inactive: 64%
Cc1ccc(NC(=O)CN2CCCN(Cc3ccccc3Cl)S2(=O)=O)c(C)c1	active: -1%
O=c1c2ccccc2nc2n1CCS2	inactive: 103%
COc1ccccc1CNC(=O)CCc1c(C)nc2cc(-c3ccccc3OC)nn2c1C	inactive: 70%
O=C(CSc1nnc(COc2cccc3ccccc23)n1CC1CCCO1)NC1CC1 (stereo not given)	inactive: 110%
CCOc1ccc(C2c3[nH]c4ccccc4c3CCN2C(=O)Cc2cccc(OCC)c2OCC)cc1 (stereo not given)	inactive: 140%
Cc1ccccc1Cn1nnc2c(=O)[nH]c(C3CCN(C(=O)c4ccccc4)CC3)nc21	inactive: 25%
CCOC(=O)c1cnc2ccc(C(=O)OC)cc2c1Nc1ccccc1CC	active: -1%
COc1ccc(-c2nc3sc(CCNC(=O)c4cccc(C(F)(F)F)c4)c(C)n3n2)cc1	inactive: 70%
Cc1cc(C)cc(-n2ccnc2SCC(=O)Nc2nc3ccccc3s2)c1	inactive: 70%
CCC(C(=O)NCc1ccccc1OC)n1nc(C)n2c(cc3sccc32)c1=O (stereo not given)	inactive: 76%
CCOC(=O)c1c(S(=O)(=O)NCC(=O)Nc2ccc(C)c(Cl)c2)c(C)n(C)c1C	inactive: 55%
COC(=O)c1cc(-c2cocc2C=C(C#N)C#N)ccc1Cl	inactive: 110%
Cc1[nH]c2ccc(S(N)(=O)=O)cc2c1C	inactive: 107%

Compound	survival
CSc1ncc(C(=O)NCc2ccccc2)c(-c2ccccc2)n1	active: 10%
CC(C)Oc1ccc(CNC(=O)c2ccc(NC(=O)N3CCSc4ncccc43)cc2)cc1	active: 1%
CC(C)(C)n1cnc2cc(NCc3ccccc3Cl)ccc21	active: 8%
COc1ccc(NC(=O)C2CCCN2S(=O)(=O)c2cccc3cccnc23)cc1OC (stereo not given)	inactive: 78%
CN(C)c1ccc(CNC(=O)C2CCN(S(=O)(=O)c3ccc4c(ccn4C)c3)CC2)cc1	inactive: 76%
Cc1ccc(C)c(Nc2nn3c(=O)c4ccc(C(=O)NCCc5ccccc5)cc4nc3s2)c1	inactive: 84%
CCOC(=O)c1ccc(NC(=O)C(CC)Sc2nc3ncccc3o2)cc1 (stereo not given)	inactive: 55%
Cc1ccc(N2CCN(C(=O)c3c4c(nc5ccccc35)C(=O)N(C3CCCCC3)C4)CC2)c(C)c1	inactive: 73%
Cc1n[nH]c(C)c1S(=O)(=O)N1CCCC(C(=O)Nc2ccc(Cl)cc2)C1 (stereo not given)	inactive: 119%
CCN(C(=O)Cn1cc(S(=O)(=O)Cc2ccccc2Cl)c2ccccc21)c1ccccc1	inactive: 68%
Cc1ccc(C)c(N2CCN(C(=O)Cn3c(-c4cccs4)cc4ccccc43)CC2)c1	inactive: 74%
COCCCn1c(SCC(=O)NCc2ccccc2)nc2c(sc3ccccc32)c1=O	inactive: 72%
COc1ccc(C(=O)Nc2nc3c(s2)CCc2cc(OC)ccc2-3)cc1	inactive: 41%
CCCCNc1nc(Oc2ccc(OCC(N)=O)nn2)nc(N2CCOCC2)n1	inactive: 118%
Cc1ccc(-n2ncc3c(N4CCN(CCO)CC4)ncnc32)cc1Cl	inactive: 73%
Cc1ccc(-c2cc(C(=O)NCc3cnn(C)c3)c3cc(Br)ccc3n2)cc1	inactive: 85%
Cc1ccc(S(=O)(=O)c2c(F)c(F)c(S(=O)(=O)c3ccc(C)cc3)c(F)c2F)cc1	inactive: 110%
Cc1ccc(-n2c(SCC(=O)Nc3ccc4c(c3)OCO4)nc3c([nH]c4ccccc43)c2=O)cc1	inactive: 121%
CCOc1cc(C2c3c(oc4ccc(F)cc4c3=O)C(=O)N2Cc2ccco2)ccc1O (stereo not given)	inactive: 99%
Cc1cc(Br)ccc1NC(=O)c1cn(C2CCCC2)c(=O)c2c1c1ccccc1n2C	inactive: 79%
Cc1ccc(Cc2nc3ccccc3nc2SCC(=O)NCc2ccc(F)cc2)cc1	inactive: 71%
Cc1cccc(C(=O)N2CCc3cc(CNC(=O)Cc4ccc(F)cc4)ccc32)c1	inactive: 64%
CCc1ccccc1N(C)C(=O)c1cnc(N2CCOCC2)c2ccccc12	inactive: 65%
CCC(=O)C1=C(c2cccc([N+](=O)[O-])c2)N(C(=O)CC)n2c(nnc2-c2ccccc2)S1	active: 0%
CCNc1nc(Cl)nc(N(C)C#N)n1	inactive: 87%
COc1ccc(CCNc2ncnc3c2c(-c2ccccc2)cn3-c2ccc(F)cc2)cc1OC	inactive: 58%
COc1ccc(CCNC(=O)Cn2c(=O)n(-c3cc(OC)c(OC)c(OC)c3)c(=O)c3ccccc32)cc1OC	inactive: 67%
